Out of some 48,000 compounds screened, about 550 (1.1%) were called active. Roughly 4% stayed inconclusive and do not appear here. No stated cut-off is given here; in the data, active means potency below about 15 µM; inconclusive means mostly about 16 µM to 33 µM; inactive means weaker than that. Some of the results follow. Where only a bound is given, the exact number is not on record here.
Potency means the concentration at half of the fitted maximal effect.

UniProt P04062, sequence (P04062 whole entry, looked up): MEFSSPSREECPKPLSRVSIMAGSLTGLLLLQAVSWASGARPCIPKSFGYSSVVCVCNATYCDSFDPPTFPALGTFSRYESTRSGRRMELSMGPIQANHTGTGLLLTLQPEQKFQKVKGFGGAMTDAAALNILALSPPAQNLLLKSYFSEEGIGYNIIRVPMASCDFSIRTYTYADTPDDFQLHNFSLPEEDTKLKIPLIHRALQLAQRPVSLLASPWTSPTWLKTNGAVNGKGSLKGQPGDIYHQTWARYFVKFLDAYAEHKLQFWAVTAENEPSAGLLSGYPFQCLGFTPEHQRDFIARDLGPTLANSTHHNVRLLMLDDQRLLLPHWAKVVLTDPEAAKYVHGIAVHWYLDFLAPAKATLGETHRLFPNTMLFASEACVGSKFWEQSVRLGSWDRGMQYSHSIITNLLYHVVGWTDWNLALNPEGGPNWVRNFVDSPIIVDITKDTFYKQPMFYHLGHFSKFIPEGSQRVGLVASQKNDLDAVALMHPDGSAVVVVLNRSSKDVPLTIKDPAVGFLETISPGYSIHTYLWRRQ

The target of this test is Lysosomal acid glucosylceramidase (Homo sapiens) (UniProt P04062). The test can be described thus: Glucocerebrosidase.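 Further: the screen sought inhibitors.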 Conditions: purified enzyme, resorufin glucoside fluorescence (screen aimed at inhibitors), 20 min. The method, boiled down:
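Wild-type enzyme at 0.2 nM final in 50mM citric acid/KH2PO4, 10mM sodium taurocholate, 0.01% tween-20, pH 5.9, with resorufin beta-D-glucopyranoside at 30 uM final. Compounds titrated, 20 min at RT, red fluorescence read; AC50 from titration.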
With `Cc1ccc(CSc2nnc(-c3ccco3)n2N)cc1`, the Potency is inactive: > 76.9 µM.

For the molecule `Cc1ccc(CN(Cc2cc3cccc(C)c3[nH]c2=O)C(=O)N(C)C)cc1`, the Potency is inactive: > 76.9 µM.

Regarding `Cc1cc(NS(=O)(=O)c2ccc(Cl)cc2)nn1CC(=O)NCc1ccco1`, the Potency is inactive: > 76.9 µM.

In the case of `C=CCn1c(COc2ccccc2F)nnc1SCC(=O)N1CC(=O)Nc2ccccc21`, the Potency is inactive: > 76.9 µM.

`O=C1CC(Nc2ccc(N3CCOCC3)cc2)C(=O)N1Cc1ccccc1` (configuration not stated): the Potency is inactive: > 76.9 µM.

For the molecule `Cc1ccc(NC2=NCC(=O)N2Cc2ccc3c(c2)OCO3)c(C)c1`, the Potency is inactive: > 76.9 µM.

Regarding `Cc1ccccc1OCCCC(=O)Nc1nccs1`, the Potency is inactive: > 76.9 µM.

Take `COCCNC(=O)C(c1ccc(O)cc1)N(Cc1ccco1)C(=O)CCC(=O)Nc1nccs1` (configuration not stated): the Potency was inactive: > 76.9 µM.

Turning to `Cc1ccc2c(c1)N(CCC(=O)NC1CC1)C(=O)C(C)O2` (configuration not stated), the Potency is inactive: > 76.9 µM.

Turning to `COc1cc(Sc2ccc(C)cc2)c(OC)cc1N`, the Potency is inactive: > 76.9 µM.

In the case of `COc1cccc(C(=O)N2CCN(CCCc3ccccc3)CC2)c1OC`, the Potency is inactive: > 76.9 µM.

Turning to `Cc1ccc(N)c(C(=O)CCCCC(=O)O)c1`, the Potency is inactive: > 76.9 µM.

With `Cn1c(=O)c2cc(NCc3ccccc3)nnc2n(C)c1=O`, the Potency was inactive: > 76.9 µM.

On to `CCCCNC(=O)CC1C(=O)N(Cc2ccccc2)C(C)c2nc3ccccc3n21` (configuration not stated), for which the Potency was inactive: > 76.9 µM.

With `COc1ccccc1C1C=C(c2ccc(Cl)cc2)Nc2nc(NS(C)(=O)=O)nn21` (configuration not stated), the Potency is inactive: > 76.9 µM.

As for `Cc1cc(N2CCOCC2)c2c(N)c(C)cc(C)c2n1`, the Potency is inactive: > 76.9 µM.

As to `O=C(NCC1COc2ccccc2O1)C1CCCN(S(=O)(=O)c2cccc3nsnc23)C1` (configuration not stated), the Potency is inactive: > 76.9 µM.

For `COc1cccc(Nc2nc(=O)[nH]nc2C)c1`, the Potency is inactive: > 76.9 µM.

As for `O=C(COc1ccc(F)cc1)NCC1CCCO1` (configuration not stated), the Potency was inactive: > 76.9 µM.

Take `CCC(C)(C(=O)NC1CCCC1)N(C(=O)CNC(C)=O)c1ccccc1` (configuration not stated): the Potency is inactive: > 76.9 µM.

For `Cc1cc(C)nc(-n2nc(C)cc2NC(=O)c2cccc(S(=O)(=O)N(C)C)c2)n1`, the Potency was inactive: > 76.9 µM.

`CC(=O)Nc1ccc2c(c1)nc(CCNC(=O)c1ccccc1)n2C`: the Potency is inactive: > 76.9 µM.

Consider `Cc1cc(C)c(S(=O)(=O)Nc2cccnc2)c(C)c1`, for which the Potency is inactive: > 76.9 µM.

Take `Cn1c(=O)c2c(ncn2CC(=O)N2CCN(c3ccc(F)cc3)CC2)n(C)c1=O`: the Potency is inactive: > 76.9 µM.

For `Cc1nc(SCC(=O)Nc2ccc(C)c(F)c2)c2oc3ccccc3c2n1`, the Potency was inactive: > 76.9 µM.

On to `COc1ccc2c3c(c(=O)oc2c1OCC(N)=O)CCCC3`, for which the Potency is inactive: > 76.9 µM.

For `CCOC(=O)c1c(/N=C/N(C)C)sc(C(=O)OC)c1C`, the Potency was inactive: > 76.9 µM.

Take `CC(C)(C)NC(=O)COC(=O)c1snc(C(=O)NC2CCCCC2)c1N`: the Potency was inactive: > 76.9 µM.

For the molecule `COc1c(O)cccc1-c1nnn(CCC(=O)OCC(=O)c2ccccc2)n1`, the Potency is inactive: > 76.9 µM.

For the molecule `COc1ccc2cc(CCNC(=O)C3CC3)c(=O)[nH]c2c1`, the Potency was inactive: > 76.9 µM.

As for `COc1cc(CNc2ccc(N3CCOCC3)c(C(=O)O)c2)ccc1OCC(N)=O`, the Potency is inactive: > 76.9 µM.

Turning to `O=C(Cn1cnc2c(nnn2Cc2ccc(F)cc2)c1=O)NCc1ccco1`, the Potency is inactive: > 76.9 µM.

Regarding `CC(C)OCCCNC(=O)c1ccc(N(C)S(C)(=O)=O)cc1`, the Potency is inactive: > 76.9 µM.

Consider `O=C(NC1CCCCC1)C(c1ccc(Cl)cc1)N(C(=O)c1cnccn1)c1ccc2c(c1)OCO2` (configuration not stated), for which the Potency is inactive: > 76.9 µM.

Take `Cn1nnc2cc(C(=O)NC(C)(C)C)ccc21`: the Potency was inactive: > 76.9 µM.

Regarding `O=C(NCCCN1CCOCC1)c1cc2ccccc2oc1=O`, the Potency is inactive: > 76.9 µM.

With `Cc1ccc2c(c1)c(C)c(C)n2CC(O)Cn1nc(C)cc1C` (configuration not stated), the Potency was inactive: > 76.9 µM.

Turning to `O=S(=O)(c1ccc(N2CC=C(c3ccccc3)CC2)nc1)N1CCCC1`, the Potency is inactive: > 76.9 µM.

Take `Cc1cc2ccc(C)c(C)c2nc1SCC#N`: the Potency is inactive: > 76.9 µM.

For `CCN1C(=O)N(C)C(N(O)C(=O)NC)C1(C)C` (configuration not stated), the Potency is inactive: > 76.9 µM.

As to `COc1ccc(OCC(=O)c2c(O)c3ccccc3oc2=O)cc1`, the Potency is inactive: > 76.9 µM.

`COc1ccc(CCn2c(SCC(=O)Nc3cc(C)on3)nc3ccccc3c2=O)cc1OC`: the Potency was inactive: > 76.9 µM.

Consider `COc1ccc(S(=O)(=O)N2CCC(C(=O)NCc3ccccn3)CC2)cc1Cl`, for which the Potency is inactive: > 76.9 µM.

`CC(C)CNC(=O)C1CC(=O)OC12CCCCC2` (configuration not stated): the Potency was inactive: > 76.9 µM.

Turning to `COc1ccccc1CNC(=O)CCCN1C(=O)COc2ccc(C)cc21`, the Potency was inactive: > 76.9 µM.

As to `Cc1cccc(N2C(=O)CC(N(O)c3ccccc3)C2=O)c1` (configuration not stated), the Potency was inactive: > 76.9 µM.

As for `COc1ccc(OC)c(N2C(=O)[C@@H]3C(c4ccccc4Cl)=NO[C@@H]3C2=O)c1`, the Potency is inactive: > 76.9 µM.

On to `CC1(C)CC(=O)c2cc(OCC(=O)NCc3cccnc3)ccc2O1`, for which the Potency is inactive: > 76.9 µM.

For the molecule `CC(=O)c1cc(C(=O)Nc2ccccc2C(=O)O)oc1C`, the Potency was inactive: > 76.9 µM.

As for `O=C(Nc1ccc(Cl)c(Cl)c1)N(Cc1cccnc1)Cc1ccco1`, the Potency is inactive: > 76.9 µM.

With `Cc1ccc(-c2nc3c(=O)n(C)c4ccccc4c3o2)cc1`, the Potency was inactive: > 76.9 µM.

As for `COC(=O)c1ccccc1NC(=O)C12CCC(C)(C(=O)O1)C2(C)C` (configuration not stated), the Potency is inactive: > 76.9 µM.

With `COc1ccccc1OCC(=O)Nc1ccc(O)cc1C(=O)O`, the Potency was inactive: > 76.9 µM.

With `Cc1nnc(-n2cnc3ccccc32)c2ccccc12`, the Potency is inactive: > 76.9 µM.

For the molecule `Cc1cc(C(=O)CSc2nnnn2-c2ccc(Cl)cc2)c(C)n1CC1CCCO1` (configuration not stated), the Potency was inactive: > 76.9 µM.

In the case of `CCOC(=O)c1ccc(NC(=O)Nc2ccn(C)n2)cc1`, the Potency was inactive: > 76.9 µM.

As to `O=C(CN1CCN(CCOCCO)CC1)N1c2ccccc2Sc2ccc(Cl)cc21`, the Potency is inactive: > 76.9 µM.

Take `Cc1nnc(SCC(=O)Nc2ccccc2N2CCOCC2)s1`: the Potency was inactive: > 76.9 µM.

Consider `COc1ccccc1CN1CC(C(=O)NC2CCCCC2)CC1=O` (configuration not stated), for which the Potency was inactive: > 76.9 µM.

As for `Cc1cc(C(=O)CSc2nnc(-c3cccnc3)n2-c2ccccc2F)c(C)n1C`, the Potency is inactive: > 76.9 µM.

Turning to `Cc1ccc2nc(C)cc(OCC(=O)O)c2c1`, the Potency is inactive: > 76.9 µM.

In the case of `O=C(NC1CCS(=O)(=O)C1)c1cnccn1` (configuration not stated), the Potency was inactive: > 76.9 µM.

In the case of `Cc1cc(C)nc(N2CCC(C(=O)Nc3cccc(C(F)(F)F)c3)CC2)n1`, the Potency is inactive: > 76.9 µM.

Take `Cc1nnc(SCC(=O)NCc2ccc3c(c2)OCO3)s1`: the Potency is inactive: > 76.9 µM.

On to `O=C(Cn1nnc(-c2cccc(C(F)(F)F)c2)n1)NC(=O)NCc1ccco1`, for which the Potency result was “inactive”.

`CCn1cc(C(=O)Nc2ccc(C(=O)N3CCCC3)cc2)c(=O)c2ccc(C)nc21`: the Potency is inactive: > 76.9 µM.

For `Cc1ccc(C(=O)N2c3ccc(F)cc3CCC2C)o1` (configuration not stated), the Potency was inactive: > 76.9 µM.

In the case of `CCN(CC)CCCNC(=O)CC1Sc2ccccc2NC1=O` (configuration not stated), the Potency is inactive: > 76.9 µM.

Consider `COc1ccc(-n2nnnc2SCC(=O)Nc2cccc(NC(C)=O)c2)cc1OC`, for which the Potency was inactive: > 76.9 µM.

As for `CCc1c(C)nc(/N=C(/NC(=O)c2ccccc2)Nc2ccccc2OC)[nH]c1=O`, the Potency is inactive: > 76.9 µM.

For the molecule `CC(c1ccco1)N(Cc1ccco1)C(=O)Nc1ccccc1` (configuration not stated), the Potency is inactive: > 76.9 µM.

As for `N#Cc1ccc(CSc2nnc(Cc3cccs3)n2Cc2ccco2)cc1`, the Potency result was “inactive”.

Take `COCCn1c(SCC(=O)Nc2cccc(C(=O)OC)c2)nc2ccccc2c1=O`: the Potency is inactive: > 76.9 µM.

Regarding `O=C(NCc1ccccc1Cl)C1CCN(S(=O)(=O)N2CCC3(CC2)OCCO3)CC1`, the Potency was inactive: > 76.9 µM.

With `Cc1ccc(S(=O)(=O)CC(c2ccccc2)N2CCOCC2)cc1` (configuration not stated), the Potency was inactive: > 76.9 µM.

`CCCn1c(SCC(=O)NC)nnc1C(C)C`: the Potency was inactive: > 76.9 µM.

For `CCOC(=O)C1CCN(C(=O)N(C)C)CC1`, the Potency is inactive: > 76.9 µM.

With `CCc1nnc(NC(=O)CSc2nc3c(cc2C#N)CCC3)s1`, the Potency is inactive: > 76.9 µM.

For the molecule `CS(=O)(=O)N(CCc1ccccc1)CC(=O)Nc1ccc2c(c1)OCO2`, the Potency is inactive: > 76.9 µM.

As to `C/C(=N\O)C1/C(=N/O)CC2C1C2(C)C` (configuration not stated), the Potency was inactive: > 76.9 µM.

Regarding `C=CCc1cccc2cc(C(=O)NC(C)(C)C)c(=O)oc12`, the Potency was inactive: > 76.9 µM.

On to `CCOC(=O)N1CCN(c2nc(SC)nc3sc4c(c23)CC(C)(C)OC4)CC1`, for which the Potency is inactive: > 76.9 µM.

As to `NC(=O)C1(N2CCCCC2)CCN(CC(=O)Nc2ccc(Oc3ccccc3)cc2)CC1`, the Potency is inactive: > 76.9 µM.

As for `CCCN(Cc1cc2cc(C)ccc2[nH]c1=O)C(=O)c1cccc(OC)c1`, the Potency was inactive: > 76.9 µM.

Consider `O=C(NCC12CC3CC(C1)CC(CNC(=O)N1CCCC1)(C3)C2)N1CCCC1`, for which the Potency is inactive: > 76.9 µM.

Regarding `CCCC(=O)N=C1SC2CS(=O)(=O)CC2N1c1ccc(C(C)=O)cc1` (configuration not stated), the Potency is inactive: > 76.9 µM.

Take `Cn1cccc1-c1cc(C(=O)O)[nH]n1`: the Potency was inactive: > 76.9 µM.

Take `CCCCCc1c(C)nc(N2CCOCC2)[nH]c1=O`: the Potency result was “inactive”.

On to `COc1cc(NC(=O)C2CCCCC2)c(OC)cc1NC(=O)c1ccco1`, for which the Potency is inactive: > 76.9 µM.

For the molecule `COc1ccc(NC(=O)CN2CCN(S(=O)(=O)c3ccc(Cl)cc3)CC2)cc1`, the Potency was inactive: > 76.9 µM.

Turning to `C/C(N)=C(/C#N)C(=O)CSc1nnc(Nc2c(C)cccc2C)s1`, the Potency was inactive: > 76.9 µM.

On to `CCOC(=O)c1ccc(NC(=O)NCc2ccn(CC)n2)cc1`, for which the Potency is inactive: > 76.9 µM.

The values are drawn from PubChem BioAssay AID360 (National Center for Advancing Translational Sciences (NCATS), 2006).
